Reference: the supplement of paper PMC4604168 (melanoma cell lines)
The list shows a part of the results. Repeats are few or missing, and single values can be far off.

Tests used:
Assay in all cases: cell count relative to DMSO control; melanoma cells; higher = more viable cells
Settings in all cases: library dose: low library concentration; 72 h
MZ2-MEL = system: MZ2-MEL
MeWo = system: MeWo
RPMI7951 = system: RPMI7951
RVH-421 = system: RVH-421
SkMel28 = system: SkMel28
SkMel2 = system: SkMel2
SkMel30 = system: SkMel30
SkMel5 = system: SkMel5
UACC257 = system: UACC257
UACC62 = system: UACC62
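Note: cell number obtained by counting DAPI-stained nuclei in high-throughput microscope images with image analysis software, screen run in 1,536-well plates.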

SMILES	cell count (MZ2-MEL) [%]	cell count (MeWo) [%]	cell count (RPMI7951) [%]	cell count (RVH-421) [%]	cell count (SkMel28) [%]	cell count (SkMel2) [%]	cell count (SkMel30) [%]	cell count (SkMel5) [%]	cell count (UACC257) [%]	cell count (UACC62) [%]
CS(=O)(=O)CCNCc1ccc(-c2ccc3ncnc(Nc4ccc(OCc5cccc(F)c5)c(Cl)c4)c3c2)o1 [lapatinib] + CC(C)CCN1c2nc(Nc3cc(F)c(O)c(F)c3)ncc2N(C)C(=O)C1C [BID1870] (first compound 0.8 µM, partner dose 0.2 µM)	104	76.9	87.2	90.3	71.8	87.9	96	83.7	60.6	99.9
C=CCNC1=C2C[C@@H](C)C[C@H](OC)[C@H](O)[C@@H](C)/C=C(\C)[C@H](OC(N)=O)[C@@H](OC)/C=C\C=C(/C)C(=O)NC(=CC1=O)C2=O [Tanespimycin] + NCC(=O)Nc1ccc(-n2nc(C(F)(F)F)cc2-c2ccc3c(ccc4ccccc43)c2)cc1 [OSU03012] (first compound 0.002 µM, partner dose 1 µM)	92.9	56	102	97.3	79.4	71.2	53.2	85.3	91.6	90.5
C[C@@H](Oc1cc(-c2cnn(C3CCNCC3)c2)cnc1N)c1c(Cl)ccc(F)c1Cl [Crizotinib] + O=S(=O)(c1ccccc1)N(CC(F)(F)F)c1ccc(C(O)(C(F)(F)F)C(F)(F)F)cc1 [T0901317] (first compound 0.2 µM, partner dose 1.4 µM)	93.7	90	105	75.5	81.4	89	84.8	74.1	75	89.7
CNC(=O)c1cc(Oc2ccc(NC(=O)Nc3ccc(Cl)c(C(F)(F)F)c3)cc2)ccn1 [sorafenib] + N#Cc1c(O)c2c(-c3ccc(-c4ccccc4O)cc3)csc2[nH]c1=O [A769662] (first compound 0.4 µM, partner dose 2 µM)	97.2	93	95.1	77.2	79.3	90.4	92.5	94.7	112	93.6
C=CCNC1=C2C[C@@H](C)C[C@H](OC)[C@H](O)[C@@H](C)/C=C(\C)[C@H](OC(N)=O)[C@@H](OC)/C=C\C=C(/C)C(=O)NC(=CC1=O)C2=O [Tanespimycin] + CO[C@@H]1[C@H](N(C)C(=O)c2ccccc2)C[C@H]2O[C@]1(C)n1c3ccccc3c3c4c(c5c6ccccc6n2c5c31)C(=O)NC4 [Midostaurin] (first compound 0.002 µM, partner dose 0.08 µM)	103	76.7	83.5	67.9	102	92.8	94.1	84	78.4	89.4
C=CCNC1=C2C[C@@H](C)C[C@H](OC)[C@H](O)[C@@H](C)/C=C(\C)[C@H](OC(N)=O)[C@@H](OC)/C=C\C=C(/C)C(=O)NC(=CC1=O)C2=O [Tanespimycin] + Oc1nc(-c2ccc(C(F)(F)F)cc2)nc2c1CSCC2 [XAV939] (first compound 0.002 µM, partner dose 2 µM)	91.9	87.8	80.5	88.8	80.8	99.2	98.9	88.3	85	104
C[C@@H](Oc1cc(-c2cnn(C3CCNCC3)c2)cnc1N)c1c(Cl)ccc(F)c1Cl [Crizotinib] + Cn1cc(/C=C2\C(=O)Nc3cccnc32)c2ccccc21 [GW441756] (first compound 0.2 µM, partner dose 0.4 µM)	100	99.4	113	126	98.9	104	78.8	91.9	91.2	88.9
C[C@@H](Oc1cc(-c2cnn(C3CCNCC3)c2)cnc1N)c1c(Cl)ccc(F)c1Cl [Crizotinib] + C=CCn1c(=O)c2cnc(Nc3ccc(N4CCN(C)CC4)cc3)nc2n1-c1cccc(C(C)(C)O)n1 [MK1775] (first compound 0.2 µM, partner dose 0.02 µM)	106	91.3	112	64	85.5	91.9	95.6	84.7	83.5	92.6
CS(=O)(=O)CCNCc1ccc(-c2ccc3ncnc(Nc4ccc(OCc5cccc(F)c5)c(Cl)c4)c3c2)o1 [lapatinib] + O=C(Nc1cccc(Cl)c1)Nc1ncc(CCNc2ncnc3ccsc23)s1 [SNS314] (first compound 0.8 µM, partner dose 0.0008 µM)	100	95.7	74.3	93.8	88.4	106	92.9	97.8	81	104
CNC(=O)c1cc(Oc2ccc(NC(=O)Nc3ccc(Cl)c(C(F)(F)F)c3)cc2)ccn1 [sorafenib] + CC(C)(C)c1cnc(CSc2cnc(NC(=O)C3CCNCC3)s2)o1 [SNS-032] (first compound 0.4 µM, partner dose 0.01 µM)	102	96.5	63.1	83.4	96.2	96.4	101	100	104	82.1
CS(=O)(=O)CCNCc1ccc(-c2ccc3ncnc(Nc4ccc(OCc5cccc(F)c5)c(Cl)c4)c3c2)o1 [lapatinib] + Cc1cc([N+](=O)[O-])ccc1NS(=O)(=O)c1cc(Cl)ccc1Cl [FH535] (first compound 0.8 µM, partner dose 1 µM)	84	92.6	91.8	101	91.1	93.6	97.1	89.6	92.3	74
CS(=O)(=O)CCNCc1ccc(-c2ccc3ncnc(Nc4ccc(OCc5cccc(F)c5)c(Cl)c4)c3c2)o1 [lapatinib] + O=S(=O)(c1ccccc1)N(CC(F)(F)F)c1ccc(C(O)(C(F)(F)F)C(F)(F)F)cc1 [T0901317] (first compound 0.8 µM, partner dose 1.4 µM)	99.6	90.2	98.7	127	84.6	101	95.3	65.9	92.2	90.2
C=CCNC1=C2C[C@@H](C)C[C@H](OC)[C@H](O)[C@@H](C)/C=C(\C)[C@H](OC(N)=O)[C@@H](OC)/C=C\C=C(/C)C(=O)NC(=CC1=O)C2=O [Tanespimycin] + O=c1cc(-c2cccc3c2Sc2ccccc2S3)oc(N2CCOCC2)c1 [KU55933] (first compound 0.002 µM, partner dose 1 µM)	99.1	99.7	78.9	96.3	83.3	93.6	92.8	106	111	95.1
CN1CCN(c2ccc3nc(-c4c(N)c5c(F)cccc5[nH]c4=O)[nH]c3c2)CC1 [Dovitinib] + O=C(Nc1ccccc1)c1cc([N+](=O)[O-])ccc1Cl [GW9662] (first compound 0.1 µM, partner dose 2 µM)	99.5	94.1	89.7	122	102	112	81.4	110	84.9	94.3
CNC(=O)c1cc(Oc2ccc(NC(=O)Nc3ccc(Cl)c(C(F)(F)F)c3)cc2)ccn1 [sorafenib] + O=c1cc(-c2cccc3c2Sc2ccccc2S3)oc(N2CCOCC2)c1 [KU55933] (first compound 0.4 µM, partner dose 1 µM)	98.7	106	90	128	99.2	97.2	96.9	87.9	97.4	95
CS(=O)(=O)CCNCc1ccc(-c2ccc3ncnc(Nc4ccc(OCc5cccc(F)c5)c(Cl)c4)c3c2)o1 [lapatinib] + O=C1NC(=O)/C(=C/c2ccc(-c3ccc(F)cc3O)o2)S1 [AS252424] (first compound 0.8 µM, partner dose 1 µM)	97	99.7	94.5	99.1	108	88.3	103	102	78.4	102
C=CCNC1=C2C[C@@H](C)C[C@H](OC)[C@H](O)[C@@H](C)/C=C(\C)[C@H](OC(N)=O)[C@@H](OC)/C=C\C=C(/C)C(=O)NC(=CC1=O)C2=O [Tanespimycin] + CCc1ccc(CCOc2ccc(CC3SC(=O)NC3=O)cc2)nc1 [pioglitazone] (first compound 0.002 µM, partner dose 2 µM)	109	104	98.9	98.9	97.9	96.9	129	94	99.2	79.9
C=CCNC1=C2C[C@@H](C)C[C@H](OC)[C@H](O)[C@@H](C)/C=C(\C)[C@H](OC(N)=O)[C@@H](OC)/C=C\C=C(/C)C(=O)NC(=CC1=O)C2=O [Tanespimycin] + N#Cc1c(O)c2c(-c3ccc(-c4ccccc4O)cc3)csc2[nH]c1=O [A769662] (first compound 0.002 µM, partner dose 2 µM)	100	97.9	99.1	83	89.6	105	108	85.8	108	105
CN1CCN(c2ccc3nc(-c4c(N)c5c(F)cccc5[nH]c4=O)[nH]c3c2)CC1 [Dovitinib] + COc1cc(Nc2ncc(F)c(Nc3ccc4c(n3)NC(=O)C(C)(C)O4)n2)cc(OC)c1OC [Tamatinib] (first compound 0.1 µM, partner dose 0.4 µM)	73.7	83.5	96.2	105	82.9	91.6	77.5	92	85.8	90.6
CNC(=O)c1cc(Oc2ccc(NC(=O)Nc3ccc(Cl)c(C(F)(F)F)c3)cc2)ccn1 [sorafenib] + Cc1cc([N+](=O)[O-])ccc1NS(=O)(=O)c1cc(Cl)ccc1Cl [FH535] (first compound 0.4 µM, partner dose 1 µM)	88.4	99.3	103	93	90.1	93.9	81.9	95	106	82.1
CS(=O)(=O)CCNCc1ccc(-c2ccc3ncnc(Nc4ccc(OCc5cccc(F)c5)c(Cl)c4)c3c2)o1 [lapatinib] + CO[C@@H]1[C@H](N(C)C(=O)c2ccccc2)C[C@H]2O[C@]1(C)n1c3ccccc3c3c4c(c5c6ccccc6n2c5c31)C(=O)NC4 [Midostaurin] (first compound 0.8 µM, partner dose 0.08 µM)	91.6	76.6	85.5	76.8	82.9	82.1	87.6	78.8	78.7	81.7
